A collection of fitness landscapes (doi:10.1016/j.celrep.2020.107928)
Over roughly 81,000 sequences, “one-hybrid fitness for binding parS DNA” has its median near -0.17; the highest 2% begin near 0.51. This is one part of the list.

B1: Caulobacter ParB omega fusion; a variant is named by its letters at X, in order, B8GW30 (parent)
chain: MESVVVGEPGMSEGRRGLGRGLSALLGEVDAAPAQAPGEQLGGSREAPIEILQRNPDQPRRTFREEDLEDLSNSIREKGVLQPILVRPSPDTAGEYQIVAGERAWRAAQRAGLKTVPIMVRELDDLAVLEIGIIENVQRADLNVLEEALSYKVLMEKFERTQENIAQTIGKSXSHVANXMRLLXLPDEVQSYLVSGELTAXHARAIAAAADPVALAKQIIEGGLSVRETEALARKAPNLSAGKSKGGRPPRVKDTDTQALESDLSSVLGLDVSIDHRGSTGTLTITYATLEQLDDLCNRLTRGI

Variants of: B1
Assay: one-hybrid fitness for binding parS DNA (scaled: cognate 1, non-cognate 0); higher = stronger binding
Conditions: with parS DNA site
Method in brief: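 Fitness here means the log change in variant-to-wild-type read ratio between plasmids sequenced before and after selection. That scale was set so cognate equals 1 and non-cognate equals 0. The selection was a bacterial one-hybrid screen of Caulobacter ParB libraries, four specificity codons randomised, in E. coli USO carrying a HIS3 reporter with the site 19 bp from the promoter, grown 48 hours at 37°C on M9-minus-histidine with 0.1 mM IPTG and 5 mM 3-AT.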

one-hybrid fitness for binding parS DNA, 0.959:
RIKG

one-hybrid fitness for binding parS DNA, 0.237:
RSRW

one-hybrid fitness for binding parS DNA, ≤ 0.2:
WEHP
PRCG
QTPH
TNHN
AYID
KGVS
VLFD
LQSS
HVQD
SQWD
DAGA
RIEL
HGSR
INYL
EDVS
VFPS
PPLY
VRGR
AVDV
PQLR
HLKT
VYDG
DIAA
DCYR
LPEM
QKVI
TWLG
TTNY
MNQS
QHCF
AEVF
NEYT
HWTM
ISER
TRSH
YGRT
SFPF
SMFS
PNYL
KHTM
RRTR
WMLV
DGWA
ACMS
ENNE
KIYL
SSAH
GAEG
FLGT
PMYG
GQPG
QSYW
NSCM
FDQT
QPHA
YWYR
WDPK
WCDG
LLPM
LYWR
WHSG
SFDV
QCQG
LRSI
PPVW
MLHS
DPTK
MTVF
WRCG
RGMI
WTFC
LMTN
YMMT
AEDF
NKVT
QQSW
VKHG
LVCT
PDLA
DGYG
DEDG
GNIV
AMFC
LYHF
ANPD
RDVI
HMSI
PDQS
PNNA
FYPT
SIVA
QFYG
SLTT
HSMW
NRGT
STSK
ELNC
TSRK
DLHT
SRSI
YTES
VCHC
INSL
VDVI
LDER
LSDT
NRGK
CALC
QKAK
VGSR
TDGS
VLRF
RPLI
DMRT
KKAD
QWKM
VKAL
PQLM
QMYV
WGDL
VLLC
LVCW
TKPA
ESVS
FTGS
GMVE
ARAL
MESM
RIYE
RGTP
YVMS
NCNA
IHLG
WQKS
ETRY
DLPI
QVYP
VGQT
HHNS
VTRY
HPPM
EINS
WGKV
CITC
RMGK
SCMM
CEPR
QCIE
QIYI
TVHP
KQES
MADI
RHQL
YRTE
WPVQ
LQVD
GDRW
NATG
CIPC
ILSC
GYTL
GHHC
LLRI
TCPA
NYFL
DLIT
QKEY
WNNR
KKNN
PYSL
LWYT
VMVG
PPPC
PGPE
TAWG
DVQS
TPLM
SDRR
HRHL
DQAT
TYGN
TGKV
QMWK
DSHL
LNIT
VMCV
QHKY
ELPD
KNTT

one-hybrid fitness for binding parS DNA, 0.274:
RLLF

one-hybrid fitness for binding parS DNA, 0.23:
RHLF

one-hybrid fitness for binding parS DNA, 0.435:
RAMY

one-hybrid fitness for binding parS DNA, 0.875:
RLRS
